Consider 40 sequences from the supplement of paper PMC7826260.

The list shows a part of the results. Viral Rep nickase domains cut single-stranded DNA in vitro (3 µM enzyme, 1 h, 37 °C); shown is the middle of each 90-letter strand. The score is log2 (uncut reads / reads without enzyme); more negative means more cut, near 0 not cut, and no call is made. Reads are scaled to the total; uncut strands gain when others are lost, and binding without cutting may add a little.

In the experiment the test system is T1, Rep nickase domain of tomato golden mosaic virus.
T1 sequence (Rep 1-124, printed without the tag): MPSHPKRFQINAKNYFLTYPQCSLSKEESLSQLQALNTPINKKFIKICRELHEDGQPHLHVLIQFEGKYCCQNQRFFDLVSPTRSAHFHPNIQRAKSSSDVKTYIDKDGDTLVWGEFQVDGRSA
In words: uncleaved DNA left, log2 of reads against the no-enzyme library (log2 ratio); higher = less cleavage (more negative = more Rep cleavage of the k-mer); sequences stand for … in CTCGTCCG…ACCGGAGA
How it is done:
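A pool of 90-nt single-stranded DNAs with seven random bases just before the constant AC of the nick site (name = the seven bases) was cut by 3 µM recombinant His6-SUMO-tagged Rep nickase domain (300 nM DNA, 50 mM HEPES pH 8.0, 50 mM NaCl, 1 mM MnCl2, 1 h, 37 °C, three replicates). Uncut DNA was amplified and sequenced.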
Turning to GTGTCGC, the “uncleaved DNA left (log2)” value was determined as 0.0463.

Take CTTAAGC: the “uncleaved DNA left (log2)” value is -0.0113.

As for TGGGCTT, the “uncleaved DNA left (log2)” value was -0.0622.

As for TGTTGGA, the “uncleaved DNA left (log2)” value is -0.123.

Turning to CGTAGAC, the “uncleaved DNA left (log2)” value was -0.156.

For GGCGCCG, the “uncleaved DNA left (log2)” value turned out to be 0.0764.

In the case of GGATACC, the “uncleaved DNA left (log2)” value was 0.131.

Take TTCCCGG: the “uncleaved DNA left (log2)” value is 0.14.

Turning to TCTGGCC, the “uncleaved DNA left (log2)” value is -0.0652.

As to TTTGACA, the “uncleaved DNA left (log2)” value amounted to 0.0822.

With CAAAGAT, the “uncleaved DNA left (log2)” value came to 0.0619.

In the case of TCCAACG, the “uncleaved DNA left (log2)” value is 0.0324.

In the case of CCGGTGC, the “uncleaved DNA left (log2)” value was -0.00851.

Regarding AGGTTCG, the “uncleaved DNA left (log2)” value worked out at 0.15.

Turning to GTACAAT, the “uncleaved DNA left (log2)” value turned out to be 0.023.

In the case of CTGCCCC, the “uncleaved DNA left (log2)” value was -0.121.

Take AATGAGG: the “uncleaved DNA left (log2)” value worked out at 0.195.

Turning to ATGTATT, the “uncleaved DNA left (log2)” value was -0.148.

Turning to CCTATGA, the “uncleaved DNA left (log2)” value is -0.063.

As for ACACCCT, the “uncleaved DNA left (log2)” value is -0.0814.

Regarding GAATGAA, the “uncleaved DNA left (log2)” value is 0.0597.

Consider GCACGAC, for which the “uncleaved DNA left (log2)” value is -0.0212.

Consider ACTGTGA, for which the “uncleaved DNA left (log2)” value is 0.0622.

Turning to GCAGGAG, the “uncleaved DNA left (log2)” value amounted to 0.0146.

For the sequence ATGTACT, the “uncleaved DNA left (log2)” value was -0.11.

For the sequence GTTAGTG, the “uncleaved DNA left (log2)” value amounted to 0.0717.

As to CCTTAGC, the “uncleaved DNA left (log2)” value was 0.102.

With TCTCATC, the “uncleaved DNA left (log2)” value was 0.0415.

Turning to GATGGGA, the “uncleaved DNA left (log2)” value was 0.046.

For AATAAGC, the “uncleaved DNA left (log2)” value worked out at 0.165.

In the case of TGGACTC, the “uncleaved DNA left (log2)” value is -0.122.

As for ATATTTT, the “uncleaved DNA left (log2)” value is -0.592.

As for AGGGTAT, the “uncleaved DNA left (log2)” value is 0.165.

As for CAGTATT, the “uncleaved DNA left (log2)” value was -3.53.

Turning to GAACAGA, the “uncleaved DNA left (log2)” value stood at 0.109.

As for GCTATAA, the “uncleaved DNA left (log2)” value came to 0.0363.

In the case of ATGTTAG, the “uncleaved DNA left (log2)” value is 0.0295.

For ACCGATT, the “uncleaved DNA left (log2)” value was -0.161.

On to CGTACAT, for which the “uncleaved DNA left (log2)” value was -0.134.

For the sequence GAAAGCC, the “uncleaved DNA left (log2)” value is -0.0983.
